# Measurements as given in PubChem BioAssay (Tox21).
# Values joined by “and” are separate entries in the source; they are usually repeats but may differ in a detail not shown here. Equal entries are not always repeated. The shares of active, inactive and inconclusive entries below differ from those in the screen. For part of these data: Where the call is inconclusive, the potency comes from a doubtful curve fit. Active and inactive are the calls of the source. Unless noted, calls follow the shape of the dose curve; as a rule, active = well fitted curve in the direction sought with a large enough effect in the repeat runs; inconclusive = weak or mixed curves; inactive = no such curve, though single readings can be large; an effect the other way counts as inactive or inconclusive.
# What was measured:
# [1] = qHTS assay to identify small molecule antagonists of the estrogen related receptor (ERR) signaling pathway from Tox21 library - cell viability counter screen (AID 1224834); also: nearly all actives have a fitted effect of over 30% in size; also: potency is read from the fitted curve at half-maximal effect
# Method in brief: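 CellTiter-Fluor fluorescence, read after 30 min at 37 C, measures viability of ERR cells. Cells plated at 2,000/well and incubated 6 h before pin-tool compound addition, then exposed 17.5 hours at 37 C.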
# [2] = target: Nuclear receptor subfamily 1 group I member 3 (Homo sapiens) (UniProt Q14994); assay: qHTS assay to identify small molecule agonists of the constitutive androstane receptor (CAR) signaling pathway (AID 1224839); also: nearly all actives have a fitted effect of over 15% in size; also: potency is read from the fitted curve at half-maximal effect; as to activation: % is scaled to controls: 0 for no effect and ±100 for the full control effect
# Method in brief: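 A 15-concentration quantitative screen uses HepG2 cells co-transfected stably with human CAR and CYP2B6-2.2kb reporter. Treatment lasts 24 h with 0.75 uM PK11195 final present; ONE-Glo luminescence is the signal.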
# [3] = qHTS assay to identify small molecule agonists of H2AX (AID 1224845; active = well fitted activation curve with a large enough effect in the signal ratio in the repeat runs, not every such curve was filed as active; inconclusive = weak or mixed curves; the % refers to the signal ratio; also: potency is read from the fitted curve at half-maximal effect; as to activation (H2AX phosphorylation): % is scaled to controls: 0 for no effect and ±100 for the full control effect); settings: CHO-K1 phospho-H2AX Ser139 HTRF, 3 h; activation (H2AX phosphorylation): at 154 µM (top of the series) unless noted
# Method in brief: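 Phospho-H2AX Ser139 measured by HTRF (ex 320 nm; em 665 and 620 nm) after 24 hr antibody incubation. Compounds, 15 concentrations, 0.76% DMSO, were applied to CHO-K1 cells for 3hr at 37C before lysis.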
# [4] = qHTS assay to identify small molecule agonists of the hypoxia (HIF-1) signaling pathway (AID 1224846; active = well fitted activation curve with a large enough effect in the signal ratio in the repeat runs, not every such curve was filed as active; inconclusive = weak or mixed curves; the % refers to the signal ratio; also: potency is read from the fitted curve at half-maximal effect; as to activation: % is scaled to controls: 0 for no effect and ±100 for the full control effect); settings: HRE-bla ME-180 cells, beta-lactamase ratio, 17 h; activation: at 76.8 µM (top of the series) unless noted
# Method in brief: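 Compounds added to ME-180 cells carrying hypoxia-response-element beta-lactamase reporter (0.5% dialyzed FBS, 5 h preplating), 17 h at 37C; agonist activity detected by CCF4-AM B/G FRET read-out.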
# [5] = qHTS assay to identify small molecule antagonists of the estrogen related receptor signaling pathway with the pleiotropic PPARgamma coactivator (PGC) from Tox21 10K library - cell viability counter screen (AID 1224840; active = well fitted cell-killing curve with a large enough effect in the repeat runs, not every such curve was filed as active; inconclusive = weak or mixed curves, or effect the other way; inactive = no such curve, though single readings can be large or run the other way; also: nearly all actives have a fitted effect of over 40% in size; also: potency is read from the fitted curve at half-maximal effect)
# Method in brief: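 Counter-screen for cytotoxicity: after 17.5 h compound exposure at 37 C, CellTiter-Fluor reagent added to PGC/ERR cells for 30 min and fluorescence read. Cells were seeded at 2,000 per well 6 h before dosing.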
# [6] = target: Thyrotropin receptor (Homo sapiens) (UniProt P16473); assay: qHTS assay to identify small molecule agonists of the thyroid stimulating hormone receptor (TSHR) signaling pathway (AID 1224843; calls by dose curve; also: nearly all actives have a fitted effect of over 45% in size; also: potency is read from the fitted curve at half-maximal effect; as to activation: % is scaled to controls: 0 for no effect and ±100 for the full control effect); settings: TSHR-HEK293 cells, cAMP HTRF, agonist mode, 30 min; activation: at 92.4 µM (top of the series) unless noted
# Method in brief: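 A cell-based cAMP HTRF format was run in TSHR-transfected HEK293 cells, 800 per well. Treatment: 30 min, room temperature. Detection: 1 h with labelled cAMP and anti-cAMP cryptate. Concentration-response over 15 points, three replicates.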
# [7] = qHTS assay to identify small molecule antagonists of the estrogen related receptor (ERR) signaling pathway from Tox21 library (AID 1224848); also: potency is read from the fitted curve at half-maximal effect; nearly all actives have a fitted effect of over 50% in size
# Method in brief: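 ERR cell line, 2,000 cells/well. 6 h settle, then compound (DMSO) added; 18 h at 37 C; ONE-Glo luminescence after 30 min RT.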
# [8] = qHTS assay to identify small molecule agonists of the estrogen related receptor signaling pathway with the pleiotropic PPARgamma coactivator (PGC) from Tox21 10K library (AID 1224842); also: potency is read from the fitted curve at half-maximal effect; nearly all actives have a fitted effect of over 15% in size
# Method in brief: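 Luminescence from One-Glo (30 min, room temperature) measured after PGC/ERR cells had 18 h at 37 C with pinned compound (23 nL in DMSO). Cells had been seeded at 2,000 per well and pre-incubated 6 h.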
# [9] = qHTS assay to identify small molecule agonists of the hypoxia (HIF-1) signaling pathway - cell viability counter screen (AID 1224844; calls by dose curve; also: nearly all actives have a fitted effect of over 50% in size; also: potency is read from the fitted curve at half-maximal effect)
# Method in brief: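 Cytotoxicity measured by CellTiter-Glo ATP luminescence in the wells also read for beta-lactamase signal. Cells were HRE-bla ME-180 (2,000/well, 0.5% dialyzed FBS), exposed to compounds for 17 h at 37C.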
# [10] = qHTS assay to identify small molecule agonists of the estrogen related receptor (ERR) signaling pathway from Tox21 library (AID 1224849; calls by dose curve; also: % is scaled to controls: 0 for no effect and ±100 for the full control effect; nearly all actives have a fitted effect of over 15% in size); settings: ERR reporter cell line, ONE-Glo luciferase, 18 h; at 92.4 µM (top of the series) unless noted
# Method in brief: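 Luminescent agonist read-out (One-Glo, 30-minute room-temperature incubation) following 18-hour compound treatment at 37 C of the ERR cell line, which had been plated 6 hours before dosing.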
# [11] = qHTS RealTime-Glo MT Cell Viability Assay in HEK293 cells - 32 hour (AID 1224868); also: potency is read from the fitted curve at half-maximal effect; nearly all actives have a fitted effect of over 50% in size
# Method in brief: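 HEK293 cells were seeded at 600 cells/well together with NanoLuc luciferase and cell-permeant prosubstrate, preincubated 5 h at 37 C/5% CO2, then given compound in DMSO by pintool. Luminescence from viable-cell prosubstrate reduction was read repeatedly over 40 h.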
# [12] = qHTS assay to identify small molecule agonists of the constitutive androstane receptor (CAR) signaling pathway - cell viability counter screen (AID 1224836); also: % is scaled to controls: 0 for no effect and ±100 for the full control effect; nearly all actives have a fitted effect of over 45% in size
# Method in brief: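 Counter screen multiplexed with the CAR reporter readout: HepG2 cells co-transfected with hCAR and the CYP2B6-2.2kb construct receive a 15-concentration compound series and 0.75 uM PK11195 (final), then CellTiter-Fluor fluorescence is read after 23 h.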
# [13] = qHTS assay to identify small molecule agonists of H2AX - cell viability counter screen (AID 1224847; calls by dose curve; also: nearly all actives have a fitted effect of over 30% in size; also: potency is read from the fitted curve at half-maximal effect)
# Method in brief: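 We seed wild-type CHO-K1 cells overnight, treat them for 3 hr at 37C with compounds in 15-concentration series, and quantify remaining viability by CellTiter-Glo luminescence.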
# [14] = qHTS assay to identify small molecule antagonists of the estrogen related receptor signaling pathway with the pleiotropic PPARgamma coactivator (PGC) from Tox21 10K library (AID 1224841; call rule not given here; also: potency is read from the fitted curve at half-maximal effect; actives are mostly falling curves and most rising ones were filed inactive; nearly all actives have a fitted effect of over 50% in size)
# Method in brief: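 Luminescence (One-Glo, 30 min at room temperature) after 18 h compound treatment at 37 C of PGC/ERR reporter cells plated at 2,000 cells/well and settled 6 h beforehand.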
# [15] = qHTS RealTime-Glo MT Cell Viability Assay in HepG2 cells - 24 hour (AID 1224867)
# Method in brief: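 HepG2 cells were seeded at 600 cells/well together with NanoLuc luciferase and a cell-permeant prosubstrate, preincubated 5 h at 37 C/5% CO2, then pin-dosed with compounds in DMSO. Nonlytic luminescence from viable cells was read at each time point.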
# [16] = target: Nuclear receptor subfamily 1 group I member 3 (Homo sapiens) (UniProt Q14994); assay: qHTS assay to identify small molecule antagonists of the constitutive androstane receptor (CAR) signaling pathway (AID 1224838);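 also: HepG2 cells stably expressing hCAR with CYP2B6 luciferase reporter stimulated by CITCO; potency is read from the fitted curve at half-maximal effect; nearly all actives have a fitted effect of over 40% in size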
# Method in brief: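 Antagonism measured as luciferase signal (ONE-Glo, 30 min, room temperature) in CAR-stimulated cells: HepG2-CYP2B6-hCAR double-stable line exposed 24 hr at 37 C to compound in a 15-point series plus 50 nM CITCO.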
# Tags tell the direction and shape of the fitted curve or compound fluorescence and quenching.
# Chain of UniProt Q14994 (Q14994 whole entry, looked up): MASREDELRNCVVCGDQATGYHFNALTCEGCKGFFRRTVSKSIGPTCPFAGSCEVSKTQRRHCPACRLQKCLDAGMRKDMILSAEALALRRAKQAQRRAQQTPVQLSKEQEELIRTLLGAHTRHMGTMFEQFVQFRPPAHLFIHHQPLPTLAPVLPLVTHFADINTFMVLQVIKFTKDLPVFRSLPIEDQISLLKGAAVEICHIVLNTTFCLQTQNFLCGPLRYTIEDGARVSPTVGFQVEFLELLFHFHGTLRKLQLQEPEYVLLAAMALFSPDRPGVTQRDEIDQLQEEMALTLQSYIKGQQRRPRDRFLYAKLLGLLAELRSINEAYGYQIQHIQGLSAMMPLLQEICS
# Chain of UniProt P16473 (P16473 whole entry, looked up): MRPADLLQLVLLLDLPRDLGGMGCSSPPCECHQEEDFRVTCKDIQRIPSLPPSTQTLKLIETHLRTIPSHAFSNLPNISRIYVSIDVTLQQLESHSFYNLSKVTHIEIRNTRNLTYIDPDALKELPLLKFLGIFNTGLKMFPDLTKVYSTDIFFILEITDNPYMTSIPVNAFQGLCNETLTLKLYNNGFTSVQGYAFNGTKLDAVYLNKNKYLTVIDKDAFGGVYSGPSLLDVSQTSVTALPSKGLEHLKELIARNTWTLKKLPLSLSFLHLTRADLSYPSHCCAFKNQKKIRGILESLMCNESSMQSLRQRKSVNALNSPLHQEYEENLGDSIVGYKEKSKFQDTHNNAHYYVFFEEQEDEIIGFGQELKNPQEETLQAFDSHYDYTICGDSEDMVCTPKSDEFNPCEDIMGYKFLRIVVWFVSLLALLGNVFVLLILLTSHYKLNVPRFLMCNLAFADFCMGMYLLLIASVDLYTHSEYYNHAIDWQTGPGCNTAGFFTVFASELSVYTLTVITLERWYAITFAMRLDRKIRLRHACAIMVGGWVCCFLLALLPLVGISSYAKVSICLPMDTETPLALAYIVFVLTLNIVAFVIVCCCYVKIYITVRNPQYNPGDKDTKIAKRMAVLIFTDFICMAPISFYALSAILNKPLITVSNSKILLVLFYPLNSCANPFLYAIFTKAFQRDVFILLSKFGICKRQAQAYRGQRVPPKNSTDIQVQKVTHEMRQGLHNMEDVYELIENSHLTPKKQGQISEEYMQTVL
smiles,measurement,setting,value
CC1=NN(c2ccc(C(=O)O)cc2)C(=O)C1,Potency,[1],"inconclusive: 61.1 µM [cytotoxic, partial curve, poor fit]"
same,Potency,[2],"inconclusive: 68.6 µM [activator, single point]"
same,Potency,[3],"inconclusive: 113 µM [falling, partial curve]"
same,Potency,[4],inactive
C=C1C(=C/C=C2\CCC[C@]3(C)[C@@H]([C@H](C)/C=C/[C@@H](O)C4CC4)CC[C@@H]23)C[C@@H](O)C[C@@H]1O,Potency,[1],active: 29.8 µM
same,Potency,[2],inconclusive: 33.5 µM [activator]
same,Potency,[5],"inconclusive: 33.5 µM [cytotoxic, single point]"
same,Potency,[6],"inconclusive: 29.8 µM [activator, partial curve, poor fit]"
same,Potency,[4],"inconclusive: 21.3 µM [falling, partial curve]"
same,Potency,[7],active: 13.3 µM
C[C@H](CCC(=O)O)[C@H]1CC[C@H]2[C@@H]3[C@H](O)C[C@@H]4C[C@H](O)CC[C@]4(C)[C@H]3CC[C@]12C,Potency,[1],"inconclusive: 61.3 µM [cytotoxic, single point]"
same,Potency,[2],"inconclusive: 61.3 µM [activator, single point]"
same,Potency,[8],"inconclusive: 68.8 µM [activator, partial curve, poor fit]"
same,Potency,[9],"inconclusive: 39 µM [cytotoxic, partial curve]"
same,"activity change, positive = activation",[10],inconclusive: -8.82%
same,Potency,[11],"inconclusive: 49.1 µM [cytotoxic, partial curve]"
NNc1nc(-c2ccc(N)cc2)cs1,Potency,[1],active: 54.5 µM
same,Potency,[2],"inconclusive: 54.5 µM [activator, partial curve]"
same,Potency,[5],active: 61.1 µM
same,activation,[6],inconclusive: -2.76%
same,Potency,[3],"inconclusive: 89.8 µM [falling, partial curve]"
same,Potency,[4],"inconclusive: 54.9 µM [falling, single point]"
same,Potency,[7],active: 61.1 µM
same,Potency,[11],"inconclusive: 21.9 µM [cytotoxic, partial curve]"
C/C=C(\C)C(=O)OCCc1ccccc1,Potency,[1],inactive
same,Potency,[5],inactive
CCCC(=O)OC(C)(C)Cc1ccccc1,Potency,[1],inactive
same,Potency,[2],inactive
same,Potency,[4],inactive
CC(C)Nc1cccnc1N1CCN(C(=O)c2cc3cc(NS(C)(=O)=O)ccc3[nH]2)CC1,Potency,[1],"inconclusive: 29.8 µM [cytotoxic, partial curve, poor fit]"
same,Potency,[12],inactive
same,Potency,[13],inactive
same,Potency,[7],"inconclusive: 13.3 µM [inhibitor, partial curve]"
COC(=O)C1=C(C)NC(COC(N)=O)=C(C(=O)OC(C)C)C1c1cccc(Cl)c1Cl (configuration not stated),Potency,[1],"inconclusive: 26.6 µM [cytotoxic, partial curve]"
same,Potency,[5],"inconclusive: 33.5 µM [cytotoxic, single point]"
same,Potency,[14],"inconclusive: 29.8 µM [falling, single point]"
same,Potency,[4],"inconclusive: 26.8 µM [falling, single point]"
same,Potency,[13],"inconclusive: 55.2 µM [cytotoxic, single point]"
same,Potency,[7],active: 26.6 µM
same,Potency,[15],active: 23.9 µM
CCCN(CCc1cccs1)[C@H]1CCc2c(O)cccc2C1,Potency,[1],"inconclusive: 29.8 µM [cytotoxic, single point]"
same,Potency,[2],inactive
same,Potency,[6],active: 29.8 µM
same,Potency,[9],inactive
same,Potency,[4],"inconclusive: 26.8 µM [falling, single point]"
same,Potency,[7],inconclusive: 33.5 µM [inhibitor]
same,Potency,[11],active: 19 µM
NC(=O)c1ncn([C@@H]2O[C@H](CO)[C@@H](O)[C@H]2O)n1,Potency,[1],"inconclusive: 3.62 µM [cytotoxic, single point]"
same,Potency,[16],"active: 7.23 µM and inconclusive: 7.5 µM [inhibitor, full curve]"
same,Potency,[9],"active: 18.3 µM and inconclusive: 21.3 µM [cytotoxic, partial curve, poor fit]"
same,Potency,[3],active: 53.2 µM
same,Potency,[13],"inconclusive: 94.7 µM [cytotoxic, partial curve, poor fit]"
CCOC(=O)N1CCC(n2c(=O)[nH]c3cc(Cl)ccc32)CC1,Potency,[1],inconclusive: 33.5 µM [cytotoxic]
same,Potency,[16],"inconclusive: 2.66 µM [inhibitor, full curve]"
same,Potency,[5],"inconclusive: 29.8 µM [cytotoxic, partial curve, poor fit]"
same,activation (H2AX phosphorylation),[3],inconclusive: 8.53% [at 70.9 µM]
same,Potency,[11],"inconclusive: 8.49 µM [cytotoxic, full curve]"
